Test results from publication PMC9722908.
Read-outs that look alike come from different tables or passages of the source. Results are given in words; binding and its absence hold for the method and conditions named. Binding seen in cells or lysates may run through a third protein. Some results given as binding are weak or reduced against the parent protein; the word gives no strength. For part of these data: Where a sequence is shown, tags or fusion partners need not be part of it.

Protein sequences, listed by entry. Tags and fused reporters are not part of them. Lines headed by an entry give the natural chain unless they say otherwise; changes in a name come on top.
UniProt Q8IUC6: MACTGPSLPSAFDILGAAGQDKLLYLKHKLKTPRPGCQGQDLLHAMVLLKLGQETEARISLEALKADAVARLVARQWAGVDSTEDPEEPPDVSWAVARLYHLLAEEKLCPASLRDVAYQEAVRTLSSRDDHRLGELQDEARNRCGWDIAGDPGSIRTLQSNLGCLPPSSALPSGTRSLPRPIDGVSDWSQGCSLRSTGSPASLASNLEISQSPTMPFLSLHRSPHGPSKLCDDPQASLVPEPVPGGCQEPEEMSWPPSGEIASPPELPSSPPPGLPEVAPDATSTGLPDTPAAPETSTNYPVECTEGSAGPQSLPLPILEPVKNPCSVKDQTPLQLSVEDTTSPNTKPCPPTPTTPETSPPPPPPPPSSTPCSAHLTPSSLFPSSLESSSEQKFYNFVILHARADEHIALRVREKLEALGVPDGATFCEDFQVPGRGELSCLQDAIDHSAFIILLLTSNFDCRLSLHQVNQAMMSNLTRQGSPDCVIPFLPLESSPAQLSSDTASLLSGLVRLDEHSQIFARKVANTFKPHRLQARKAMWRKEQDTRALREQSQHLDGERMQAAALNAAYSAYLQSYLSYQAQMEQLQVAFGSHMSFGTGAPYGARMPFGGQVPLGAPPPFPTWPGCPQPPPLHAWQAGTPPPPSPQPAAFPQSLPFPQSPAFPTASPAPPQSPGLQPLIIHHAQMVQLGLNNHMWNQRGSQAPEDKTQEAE
UniProt P06803: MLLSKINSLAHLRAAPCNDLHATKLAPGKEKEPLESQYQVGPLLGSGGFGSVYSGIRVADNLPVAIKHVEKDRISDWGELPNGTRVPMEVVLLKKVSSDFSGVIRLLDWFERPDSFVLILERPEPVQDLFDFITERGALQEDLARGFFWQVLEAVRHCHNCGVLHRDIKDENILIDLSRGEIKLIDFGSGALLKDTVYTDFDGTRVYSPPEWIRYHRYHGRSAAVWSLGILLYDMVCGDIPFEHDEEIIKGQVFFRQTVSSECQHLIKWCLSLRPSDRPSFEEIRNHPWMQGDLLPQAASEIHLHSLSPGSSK

Tests used:
[1] = biological target: T1, endogenous TBK1 of murine macrophages (mouse (endogenous in BMDMs and RAW264.7)) (UniProt Q9WUN2); assay: co-IP; endogenous proteins; WT RAW264.7 cells treated with LPS (100 ng ml^-1), immunoprecipitation with an antibody against endogenous TBK1, immunoblot; complex seen 1 h after LPS
T1 sequence: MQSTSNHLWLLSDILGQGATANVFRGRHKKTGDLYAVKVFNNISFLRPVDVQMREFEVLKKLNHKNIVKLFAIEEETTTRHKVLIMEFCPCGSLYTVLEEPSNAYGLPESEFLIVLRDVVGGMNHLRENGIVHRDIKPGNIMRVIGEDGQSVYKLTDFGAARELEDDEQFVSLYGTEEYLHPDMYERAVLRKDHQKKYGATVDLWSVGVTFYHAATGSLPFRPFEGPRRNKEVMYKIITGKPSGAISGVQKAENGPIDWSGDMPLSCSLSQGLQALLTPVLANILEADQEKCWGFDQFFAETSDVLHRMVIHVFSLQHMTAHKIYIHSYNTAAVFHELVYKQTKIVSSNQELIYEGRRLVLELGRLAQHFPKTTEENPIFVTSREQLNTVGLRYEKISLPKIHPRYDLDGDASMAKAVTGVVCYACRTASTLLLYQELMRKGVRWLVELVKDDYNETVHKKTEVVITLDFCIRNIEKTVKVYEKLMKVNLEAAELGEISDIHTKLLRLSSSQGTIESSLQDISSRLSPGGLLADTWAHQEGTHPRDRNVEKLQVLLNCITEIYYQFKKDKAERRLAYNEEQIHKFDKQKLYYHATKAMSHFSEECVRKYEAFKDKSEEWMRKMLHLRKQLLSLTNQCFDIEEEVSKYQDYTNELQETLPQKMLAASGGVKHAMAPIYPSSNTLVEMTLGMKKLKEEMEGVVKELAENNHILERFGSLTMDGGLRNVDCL

[2] = biological target: T2, WT GST-fused human IRF3 (human) (UniProt Q14653); assay: pull-down; HEK293T cells co-transfected with GST-tagged IRF3 and Flag-tagged Pim1; lysates (20 mM HEPES pH 7.4, 150 mM NaCl, 150 mM KCl, 10 mM EDTA, 10% glycerol, 1% NP-40) incubated with glutathione-Sepharose 4B at 4 °C for 1 h, immunoblot
T2 sequence: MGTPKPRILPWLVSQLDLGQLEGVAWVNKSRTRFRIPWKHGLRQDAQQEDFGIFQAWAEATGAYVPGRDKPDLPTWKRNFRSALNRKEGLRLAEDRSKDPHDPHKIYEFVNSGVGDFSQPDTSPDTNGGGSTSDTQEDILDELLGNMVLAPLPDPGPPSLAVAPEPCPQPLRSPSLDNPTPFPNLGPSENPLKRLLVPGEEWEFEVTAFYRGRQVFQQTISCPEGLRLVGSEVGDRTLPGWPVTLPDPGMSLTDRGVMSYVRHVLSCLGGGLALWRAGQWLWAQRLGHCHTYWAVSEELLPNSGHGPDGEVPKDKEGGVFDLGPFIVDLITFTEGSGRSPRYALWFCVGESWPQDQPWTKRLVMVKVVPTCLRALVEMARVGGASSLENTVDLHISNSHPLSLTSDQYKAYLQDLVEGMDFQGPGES

[3] = biological target: T3, EGFP-IRF3 (human, WT) (human) (UniProt Q14653); assay: co-IP; HEK293T cells transfected with differently tagged constructs; RIPA lysates incubated with tag-specific antibodies overnight at 4 °C, protein G Sepharose, immunoblot
T3 sequence: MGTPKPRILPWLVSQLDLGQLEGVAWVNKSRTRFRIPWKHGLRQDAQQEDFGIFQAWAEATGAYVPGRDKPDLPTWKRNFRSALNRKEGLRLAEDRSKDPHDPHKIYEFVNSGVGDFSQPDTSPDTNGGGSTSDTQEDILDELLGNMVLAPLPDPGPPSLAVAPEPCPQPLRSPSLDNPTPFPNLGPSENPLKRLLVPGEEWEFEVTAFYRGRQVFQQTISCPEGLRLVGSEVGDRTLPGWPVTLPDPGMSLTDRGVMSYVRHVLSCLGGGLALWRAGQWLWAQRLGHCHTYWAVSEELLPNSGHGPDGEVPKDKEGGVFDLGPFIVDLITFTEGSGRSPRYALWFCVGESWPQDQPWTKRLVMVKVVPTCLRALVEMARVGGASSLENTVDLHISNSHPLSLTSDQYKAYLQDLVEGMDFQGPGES

[4] = biological target: T4, Flag-TRAF3 (murine) (murine) (UniProt Q60803); assay: as above
T4 sequence: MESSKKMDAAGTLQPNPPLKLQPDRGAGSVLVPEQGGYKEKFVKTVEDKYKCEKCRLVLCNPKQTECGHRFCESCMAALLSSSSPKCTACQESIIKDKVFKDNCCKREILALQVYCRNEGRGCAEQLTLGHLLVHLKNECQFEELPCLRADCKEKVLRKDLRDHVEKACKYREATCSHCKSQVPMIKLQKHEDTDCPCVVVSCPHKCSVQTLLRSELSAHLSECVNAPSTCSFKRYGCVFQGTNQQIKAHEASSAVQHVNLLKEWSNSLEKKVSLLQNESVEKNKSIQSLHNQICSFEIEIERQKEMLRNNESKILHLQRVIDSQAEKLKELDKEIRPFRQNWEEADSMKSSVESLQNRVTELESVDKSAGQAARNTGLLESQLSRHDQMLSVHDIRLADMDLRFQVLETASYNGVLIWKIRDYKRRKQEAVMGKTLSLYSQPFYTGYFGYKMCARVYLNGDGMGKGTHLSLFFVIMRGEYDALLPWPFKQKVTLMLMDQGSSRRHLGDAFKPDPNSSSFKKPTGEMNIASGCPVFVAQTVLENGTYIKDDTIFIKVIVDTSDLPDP

[5] = biological target: T5, Flag-tagged human TBK1 (K38A) (human) (UniProt Q9UHD2); assay: as above
T5 sequence: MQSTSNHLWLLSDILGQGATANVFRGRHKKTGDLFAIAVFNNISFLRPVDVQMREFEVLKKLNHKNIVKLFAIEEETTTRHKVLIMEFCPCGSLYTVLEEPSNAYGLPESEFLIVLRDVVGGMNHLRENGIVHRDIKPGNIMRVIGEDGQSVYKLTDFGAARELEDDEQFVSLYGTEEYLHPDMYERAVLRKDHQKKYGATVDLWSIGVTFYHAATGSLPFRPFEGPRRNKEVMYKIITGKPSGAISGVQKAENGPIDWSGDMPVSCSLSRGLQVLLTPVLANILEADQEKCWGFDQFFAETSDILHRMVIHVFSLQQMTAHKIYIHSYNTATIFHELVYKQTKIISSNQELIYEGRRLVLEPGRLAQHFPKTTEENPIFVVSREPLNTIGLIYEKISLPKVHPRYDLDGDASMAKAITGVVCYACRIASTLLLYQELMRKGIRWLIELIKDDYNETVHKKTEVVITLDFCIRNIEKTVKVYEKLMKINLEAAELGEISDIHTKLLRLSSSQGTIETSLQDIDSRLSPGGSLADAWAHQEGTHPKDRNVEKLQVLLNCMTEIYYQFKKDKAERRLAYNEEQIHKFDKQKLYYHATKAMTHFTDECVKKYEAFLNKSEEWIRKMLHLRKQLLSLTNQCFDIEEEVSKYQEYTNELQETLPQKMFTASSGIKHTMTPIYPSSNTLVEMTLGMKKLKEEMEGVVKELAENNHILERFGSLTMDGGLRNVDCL

[6] = biological target: Flag-tagged human TRIF (human) (UniProt Q8IUC6); assay: as above
[7] = biological target: T6, Flag-tagged human WT TBK1 (human) (UniProt Q9UHD2); assay: as above
T6 sequence: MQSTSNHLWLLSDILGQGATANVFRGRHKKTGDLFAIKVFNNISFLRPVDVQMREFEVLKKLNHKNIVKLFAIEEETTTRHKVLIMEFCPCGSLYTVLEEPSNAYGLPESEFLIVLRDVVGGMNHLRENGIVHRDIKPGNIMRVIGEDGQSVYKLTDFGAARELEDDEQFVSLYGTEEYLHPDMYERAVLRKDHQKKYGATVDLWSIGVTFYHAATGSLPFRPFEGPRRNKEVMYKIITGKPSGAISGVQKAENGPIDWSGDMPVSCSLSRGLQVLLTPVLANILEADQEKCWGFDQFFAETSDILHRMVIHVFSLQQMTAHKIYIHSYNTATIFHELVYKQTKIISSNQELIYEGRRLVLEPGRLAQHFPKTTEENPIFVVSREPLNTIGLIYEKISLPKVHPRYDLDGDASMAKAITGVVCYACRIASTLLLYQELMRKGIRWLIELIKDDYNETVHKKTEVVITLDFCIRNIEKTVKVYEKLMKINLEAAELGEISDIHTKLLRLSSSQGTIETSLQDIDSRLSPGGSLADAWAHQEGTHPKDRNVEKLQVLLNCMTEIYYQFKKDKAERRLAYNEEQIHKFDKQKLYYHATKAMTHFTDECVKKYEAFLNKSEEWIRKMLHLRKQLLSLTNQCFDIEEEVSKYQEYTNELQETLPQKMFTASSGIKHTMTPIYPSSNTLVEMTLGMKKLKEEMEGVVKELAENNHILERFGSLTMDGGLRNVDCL

[8] = biological target: Flag-tagged human TRIF (human) (UniProt Q8IUC6); assay: as above; remark: listed apart in the source
[9] = biological target: T1, endogenous TBK1 of murine macrophages (mouse (endogenous in BMDMs and RAW264.7)); assay: co-IP; endogenous proteins; WT RAW264.7 cells treated with LPS (100 ng ml^-1), immunoprecipitation with an antibody against endogenous TBK1, immunoblot; complex seen 1 h after LPS; remark: listed apart in the source

With “Pim1S, endogenous in RAW264.7 cells (from UniProt P06803 1-313)” the binding [1] was “no binding”.

In the case of “Flag-tagged murine Pim1 K67M (from UniProt P06803 1-313) (enzyme)”, the binding [2] is reported as “binds”.

With “HA-tagged murine Pim1 (from UniProt P06803 1-313)” the binding [3] was “binds”, the binding [4] was “binds” and the binding [5] was “no binding”. For the same molecule, the binding [6] was “binds” and the binding [7] was “binds”.

B1: EGFP-IRF3 (human, WT) (protein, UniProt Q14653 1-427)
chain: MGTPKPRILPWLVSQLDLGQLEGVAWVNKSRTRFRIPWKHGLRQDAQQEDFGIFQAWAEATGAYVPGRDKPDLPTWKRNFRSALNRKEGLRLAEDRSKDPHDPHKIYEFVNSGVGDFSQPDTSPDTNGGGSTSDTQEDILDELLGNMVLAPLPDPGPPSLAVAPEPCPQPLRSPSLDNPTPFPNLGPSENPLKRLLVPGEEWEFEVTAFYRGRQVFQQTISCPEGLRLVGSEVGDRTLPGWPVTLPDPGMSLTDRGVMSYVRHVLSCLGGGLALWRAGQWLWAQRLGHCHTYWAVSEELLPNSGHGPDGEVPKDKEGGVFDLGPFIVDLITFTEGSGRSPRYALWFCVGESWPQDQPWTKRLVMVKVVPTCLRALVEMARVGGASSLENTVDLHISNSHPLSLTSDQYKAYLQDLVEGMDFQGPGES
B1 was tested, and the binding [8] was “binds”.

B2: endogenous IRF3 of murine macrophages (protein, UniProt P70671 1-419)
chain: METPKPRILPWLVSQLDLGQLEGVAWLDESRTRFRIPWKHGLRQDAQMADFGIFQAWAEASGAYTPGKDKPDVSTWKRNFRSALNRKEVLRLAADNSKDPYDPHKVYEFVTPGARDFVHLGASPDTNGKSSLPHSQENLPKLFDGLILGPLKDEGSSDLAIVSDPSQQLPSPNVNNFLNPAPQENPLKQLLAEEQWEFEVTAFYRGRQVFQQTLFCPGGLRLVGSTADMTLPWQPVTLPDPEGFLTDKLVKEYVGQVLKGLGNGLALWQAGQCLWAQRLGHSHAFWALGEELLPDSGRGPDGEVHKDKDGAVFDLRPFVADLIAFMEGSGHSPRYTLWFCMGEMWPQDQPWVKRLVMVKVVPTCLKELLEMAREGGASSLKTVDLHISNSQPISLTSDQYKAYLQDLVEDMDFQATGNI
In the case of B2, the binding [9] is reported as “binds”.
